Measured values taken from PubChem BioAssay AID485294 (National Center for Advancing Translational Sciences (NCATS), 2010).
In all, about 370,000 compounds went through this assay and about 150 (0.041%) were called active. Inconclusive results, whose numbers are uncertain, are shown with a selection of clear calls. The call rests on the fitted dose curve; in most records, active means well fitted inhibition curve with a large enough effect; inconclusive means small, poorly fitted or top-dose-only effect; inactive means flat fitted curve, though single readings scatter. Potencies of inconclusive entries are left out as doubtful fits.

Target: Beta-lactamase (Escherichia coli (strain K12)) (UniProt P00811)
Sequence of UniProt P00811 (P00811 whole entry, looked up): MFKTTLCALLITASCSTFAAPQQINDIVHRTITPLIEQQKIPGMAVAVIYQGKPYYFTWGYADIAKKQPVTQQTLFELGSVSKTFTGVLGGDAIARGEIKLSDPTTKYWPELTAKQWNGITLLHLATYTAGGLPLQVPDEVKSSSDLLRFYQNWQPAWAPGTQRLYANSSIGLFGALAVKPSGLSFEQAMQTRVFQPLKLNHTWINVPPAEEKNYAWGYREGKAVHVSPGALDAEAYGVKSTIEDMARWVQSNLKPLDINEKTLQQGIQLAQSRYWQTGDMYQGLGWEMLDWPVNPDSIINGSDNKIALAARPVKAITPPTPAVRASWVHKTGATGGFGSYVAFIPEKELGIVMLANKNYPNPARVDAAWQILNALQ
Assay: qHTS Inhibitors of AmpC Beta-Lactamase (assay with detergent); further: nearly all actives have a fitted effect of over 25% in size;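 on activity change, negative = inhibition: 0% = no-compound wells and -100% = no-enzyme wells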
Settings: AmpC hydrolysis of nitrocefin, absorbance 480 nm, 0.01% Triton; activity change, negative = inhibition: at 114 µM (top of the series)
In short: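 AmpC (5.3 nM in the dispensed reagent) in 20 mM phosphate pH 7.0 with 0.01% (detergent screen) or 0.0001% Triton X-100 was preincubated with compounds for 15 min at room temperature. Nitrocefin was then added from an 800 uM solution, and hydrolysis was followed at 480 nm.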
Potency means the concentration at half of the fitted maximal effect; tags describe the fitted curve by direction and shape.

Compound | activity change, negative = inhibition | Potency
Cc1ccccc1OCC(=O)OCC(=O)c1ccc(OCc2ccccc2)cc1 | inactive: 6.89% | 
O=C(CN(Cc1cccs1)C(=O)CNS(=O)(=O)c1ccccc1)NCc1ccco1 |  | inconclusive [inhibitor, full curve, poor fit]
Cc1cccc(C2c3[nH]c4ccccc4c3CCN2C(=O)c2cc(C(C)C)nc(N)n2)n1 (stereo not drawn) | inactive: 4.03% | 
O=C(CCC1CC(=O)Nc2ccccc21)NCc1cccnc1 (stereo not drawn) |  | inconclusive [inhibitor, full curve]
CCOc1ccccc1NC(=S)N1CCCCCC1 |  | inconclusive [inhibitor, partial curve]
O=c1cccc2n1CC1CC2CN(Cc2ccc3c(c2)OCO3)C1 (stereo not drawn) |  | inconclusive [inhibitor, full curve]
CC1(OC(=O)CCc2ccccc2)C(=O)C=C2C=C(c3ccc(C#N)cc3)N(Cc3ccccc3)C=C2C1=O (stereo not drawn) | inactive: 2.28% | 
O=C(Nc1ncc([N+](=O)[O-])s1)c1ccc2c(c1)OCO2 | inactive: 4.24% | 
CC1(c2ccccc2)CC(C)(C)N(C(=O)c2cccc(Cl)c2)c2ccccc21 (stereo not drawn) | inactive: 16.2% | 
Cn1c(=O)[nH]c(=O)c2c1nc(CN1CCN(c3cccc(Cl)c3)CC1)n2Cc1ccccc1Cl |  | inconclusive [inhibitor, full curve, poor fit]
O=C(NCCCNC(=O)c1cnccn1)c1ccc(Br)cc1 |  | inconclusive [inhibitor, single point]
CCSc1nc2cc(OC)c(OC)cc2c(=O)n1CCc1ccccc1 | inactive: -15.8% | 
Cc1ccc(N2CC(C(=O)N3CCC(c4nc5ccccc5[nH]4)CC3)CC2=O)cc1C (stereo not drawn) | inactive: -4.57% | 
CC(C)CCNC(=O)COc1ccc2c3c(c(=O)oc2c1)CCC3 |  | inconclusive [inhibitor, full curve, poor fit]
Cc1csc2nnc(N)n12 |  | inconclusive [inhibitor, full curve, poor fit]
O=C(Nc1nncs1)c1cccc(S(=O)(=O)N2CCCCC2)c1 |  | inconclusive [inhibitor, full curve]
CCSc1nnc(NC(=O)C(NC(=O)c2ccc(Cl)cc2)C(C)C)s1 (stereo not drawn) |  | inconclusive [inhibitor, full curve, poor fit]
O=C(CCC(=O)c1cccs1)Nc1ncccc1O |  | inconclusive [inhibitor, full curve, poor fit]
Cc1cccc(NC(=O)CS(=O)CC(=O)Nc2cnc3ccccc3c2)c1C (stereo not drawn) |  | inconclusive [inhibitor, full curve, poor fit]
Cc1cccc(-c2noc(-c3ccc(F)cc3)n2)c1 |  | inconclusive [inhibitor, full curve, poor fit]
CCCCN(C)CCNC(=O)c1cc2cc3ccc(OC)cc3nc2o1 | inactive: -7.8% | 
Cc1cc2[nH]c(=O)c(=O)[nH]c2cc1S(=O)(=O)Nc1cccc(Cl)c1 | inactive: -1.25% | 

Compound | activity change, negative = inhibition | Potency
Cc1nc2nc[nH]n2c(=O)c1NC(=O)CCc1ccccc1 |  | inconclusive [inhibitor, full curve, poor fit]
O=C(CCc1ccccc1)NNC(=O)Nc1ccc(Cl)cc1 |  | inconclusive [inhibitor, partial curve, poor fit]
COc1cc(NC(=O)c2ccccc2)c(OC)cc1NC(=O)Cc1ccc(Br)cc1 |  | inconclusive [inhibitor, full curve, poor fit]
CCOC(=O)C1(CC/C(C)=N\NC(N)=O)CC(C)OC1=O (stereo not drawn) |  | inconclusive [inhibitor, full curve, poor fit]
COC(=O)c1ccc(Oc2c(C)oc3cc(OCc4cnn(-c5ccccc5)c4)ccc3c2=O)cc1 | inactive: 2.18% | 
Cc1ccc(S(=O)(=O)/N=C(\Nc2cc(C)on2)c2ccc(Cl)cc2)cc1 |  | inconclusive [inhibitor, full curve, poor fit]
CCc1ccc2nc(NC(=O)c3ccc(N4C(=O)CCC4=O)cc3)sc2c1 | inactive: -6.57% | 
Cc1cc(C)cc(OCC(=O)OCC(=O)c2cc(C)n(C3CC3)c2C)c1 |  | inconclusive [inhibitor, full curve]
CCOC(=O)C1(CCOc2ccccc2)CCN(C(C)CSC)CC1 (stereo not drawn) |  | inconclusive [inhibitor, full curve, poor fit]
NC(=O)COC(=O)c1ccccc1Nc1ccc(SC(F)F)cc1 | inactive: -12.3% | 
COc1ccccc1NC(=O)CC(=O)CSc1nnc(-c2ccc(C)cc2)n1C |  | inconclusive [inhibitor, full curve, poor fit]
Nc1nnnn1/N=C/c1cccc(OCc2ccccc2Cl)c1 |  | inconclusive [inhibitor, partial curve]
O=C(O)C1C2C=CC(C2)C1C(=O)NC1CCN(Cc2ccccc2)CC1 (stereo not drawn) |  | inconclusive [inhibitor, full curve, poor fit]
NC(=O)CN1CCN(Cc2ccc3c(c2)OCO3)CC1 |  | inconclusive [inhibitor, full curve, poor fit]
O=C(O)c1ccc(NS(=O)(=O)c2cc(C(=O)O)ccc2Br)cc1 |  | inconclusive [inhibitor, full curve]
CC(=O)N1CCC(C(=O)Nc2ccc(S(=O)(=O)N3CCCC(C)C3)cc2)CC1 (stereo not drawn) |  | inconclusive [inhibitor, full curve, poor fit]
COc1ccccc1C(=O)COC(=O)c1cc([N+](=O)[O-])ccc1N1CCOCC1 |  | inconclusive [inhibitor, full curve, poor fit]
COCC(C)NS(=O)(=O)c1ccc(NC(=O)c2ccccn2)cc1 (stereo not drawn) |  | inconclusive [inhibitor, single point]
CCC(C)Nc1cc(C)nc2ncnn12 (stereo not drawn) |  | inconclusive [inhibitor, single point]
COc1ccc(/C(N)=N/OC(=O)COc2ccccc2Cl)cc1 |  | inconclusive [inhibitor, full curve, poor fit]
Cc1c(C(=O)Nc2ccc(-n3c(C)nc4ccccc4c3=O)cc2)cccc1[N+](=O)[O-] | inactive: 2.3% | 
